Over roughly 81,000 sequences, “one-hybrid fitness for binding parS DNA” has its median near -0.17; the highest 2% begin near 0.51. The list shows a part of the results.
B1: Caulobacter ParB omega fusion; a variant is named by its letters at X, in order, B8GW30 (parent)
chain: MESVVVGEPGMSEGRRGLGRGLSALLGEVDAAPAQAPGEQLGGSREAPIEILQRNPDQPRRTFREEDLEDLSNSIREKGVLQPILVRPSPDTAGEYQIVAGERAWRAAQRAGLKTVPIMVRELDDLAVLEIGIIENVQRADLNVLEEALSYKVLMEKFERTQENIAQTIGKSXSHVANXMRLLXLPDEVQSYLVSGELTAXHARAIAAAADPVALAKQIIEGGLSVRETEALARKAPNLSAGKSKGGRPPRVKDTDTQALESDLSSVLGLDVSIDHRGSTGTLTITYATLEQLDDLCNRLTRGI

Variants of: B1
Test: one-hybrid fitness for binding parS DNA (scaled: cognate 1, non-cognate 0); higher = stronger binding
Settings: with parS DNA site
Summary of the method: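 Fitness here means the log change in variant-to-wild-type read ratio between plasmids sequenced before and after selection. That scale was set so cognate equals 1 and non-cognate equals 0. The selection was a bacterial one-hybrid screen of Caulobacter ParB libraries, four specificity codons randomised, in E. coli USO carrying a HIS3 reporter with the site 19 bp from the promoter, grown 48 hours at 37°C on M9-minus-histidine with 0.1 mM IPTG and 5 mM 3-AT.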

Row | Variant | one-hybrid fitness for binding parS DNA
1 | QPKQ | ≤ 0.2
2 | GGVR | ≤ 0.2
3 | VGLL | ≤ 0.2
4 | TMIS | ≤ 0.2
5 | SSDG | ≤ 0.2
6 | ISRK | ≤ 0.2
7 | DIWY | ≤ 0.2
8 | LGES | ≤ 0.2
9 | HTRP | ≤ 0.2
10 | VSLL | ≤ 0.2
11 | CARS | ≤ 0.2
12 | RARI | ≤ 0.2
13 | RLND | ≤ 0.2
14 | KQFV | ≤ 0.2
15 | ELRV | ≤ 0.2
16 | PFIM | ≤ 0.2
17 | GGMY | ≤ 0.2
18 | QCPA | ≤ 0.2
19 | IWES | ≤ 0.2
20 | CSWG | ≤ 0.2
21 | NNDL | ≤ 0.2
22 | GTEG | ≤ 0.2
23 | CITH | ≤ 0.2
24 | YQIS | ≤ 0.2
25 | HALF | ≤ 0.2
26 | RRTN | 0.695

Row | Variant | one-hybrid fitness for binding parS DNA
27 | DFRY | ≤ 0.2
28 | SMST | ≤ 0.2
29 | PHCE | ≤ 0.2
30 | SPYG | ≤ 0.2
31 | NVQQ | ≤ 0.2
32 | YKDN | ≤ 0.2
33 | TQYL | ≤ 0.2
34 | PYTN | ≤ 0.2
35 | RCYT | 0.963
36 | KWRS | 0.325
37 | DIGK | ≤ 0.2
38 | GTAK | ≤ 0.2
39 | CHSY | ≤ 0.2
40 | SIAL | ≤ 0.2
41 | PFIR | ≤ 0.2
42 | HVNL | ≤ 0.2
43 | LGEG | ≤ 0.2
44 | TTMI | ≤ 0.2
45 | SKTY | ≤ 0.2
46 | RMYY | 0.483
47 | SLRM | ≤ 0.2
48 | LLAH | ≤ 0.2
49 | DCDT | ≤ 0.2
50 | RCLC | 1.02
51 | HDPM | ≤ 0.2
52 | EHKR | ≤ 0.2

Row | Variant | one-hybrid fitness for binding parS DNA
53 | FMKK | ≤ 0.2
54 | WLLN | ≤ 0.2
55 | QNIS | ≤ 0.2
56 | QFPI | ≤ 0.2
57 | RYRQ | ≤ 0.2
58 | GRAV | ≤ 0.2
59 | KLGN | ≤ 0.2
60 | PVHL | ≤ 0.2
61 | IAPM | ≤ 0.2
62 | APAN | ≤ 0.2
63 | RMKN | 0.432
64 | CLDV | ≤ 0.2
65 | RQGF | 0.234
66 | RNHH | ≤ 0.2
67 | PMHT | ≤ 0.2
68 | RRNF | ≤ 0.2
69 | DVKT | ≤ 0.2
70 | PQPV | ≤ 0.2
71 | TQRL | ≤ 0.2
72 | STVT | ≤ 0.2
73 | RKHC | 0.882
74 | THRN | ≤ 0.2
75 | RPLK | ≤ 0.2
76 | CPGC | ≤ 0.2
77 | KPFR | ≤ 0.2
78 | TCCR | ≤ 0.2

Row | Variant | one-hybrid fitness for binding parS DNA
79 | WSIR | ≤ 0.2
80 | NDME | ≤ 0.2
81 | ISPC | ≤ 0.2
82 | RVYG | 1.02
83 | QYPG | ≤ 0.2
84 | ELSN | ≤ 0.2
85 | YDHS | ≤ 0.2
86 | SHSW | ≤ 0.2
87 | GPLE | ≤ 0.2
88 | PGVR | ≤ 0.2
89 | PCCH | ≤ 0.2
90 | AGNN | ≤ 0.2
91 | MTHG | ≤ 0.2
92 | QGAM | ≤ 0.2
93 | QLQR | ≤ 0.2
94 | LAPQ | ≤ 0.2
95 | CWVG | ≤ 0.2
96 | EWGR | ≤ 0.2
97 | FGRR | ≤ 0.2
98 | KDNV | ≤ 0.2
99 | TTTY | ≤ 0.2
100 | RWTA | 0.459
101 | ACHY | ≤ 0.2
102 | HRHQ | ≤ 0.2
103 | PHPV | ≤ 0.2
104 | FQKR | ≤ 0.2

Row | Variant | one-hybrid fitness for binding parS DNA
105 | PVTC | ≤ 0.2
106 | NIQN | ≤ 0.2
107 | KLGT | ≤ 0.2
108 | SPCL | ≤ 0.2
109 | LGRR | ≤ 0.2
110 | RGRR | ≤ 0.2
111 | GWES | ≤ 0.2
112 | AGLN | ≤ 0.2
113 | TRGW | ≤ 0.2
114 | VSPE | ≤ 0.2
115 | SAWG | ≤ 0.2
116 | NHDC | ≤ 0.2
117 | EMDG | ≤ 0.2
118 | QQLC | ≤ 0.2
119 | IRSA | ≤ 0.2
120 | RYGN | 0.408
121 | NCTT | ≤ 0.2
122 | RSCC | 0.915
123 | TSDA | ≤ 0.2
124 | HRRN | ≤ 0.2
125 | FLYG | ≤ 0.2
126 | VHEV | ≤ 0.2
127 | QQKR | ≤ 0.2
128 | QALN | ≤ 0.2
129 | QTPF | ≤ 0.2
130 | SVNG | ≤ 0.2

Row | Variant | one-hybrid fitness for binding parS DNA
131 | HTGV | ≤ 0.2
132 | TDTV | ≤ 0.2
133 | HSGD | ≤ 0.2
134 | HRFP | ≤ 0.2
135 | MCYG | ≤ 0.2
136 | WDLR | ≤ 0.2
137 | TNAA | ≤ 0.2
138 | MAVE | ≤ 0.2
139 | TCVP | ≤ 0.2
140 | QWTW | ≤ 0.2
141 | HYQG | ≤ 0.2
142 | QLCF | ≤ 0.2
143 | IAVS | ≤ 0.2
144 | TLTH | ≤ 0.2
145 | QMTY | ≤ 0.2
146 | CQLS | ≤ 0.2
147 | HFHL | ≤ 0.2
148 | HDRP | ≤ 0.2
149 | MSLI | ≤ 0.2
150 | HNKY | ≤ 0.2
151 | RNWN | ≤ 0.2
152 | CPRV | ≤ 0.2
153 | ATQE | ≤ 0.2

From a collection of fitness landscapes (doi:10.1016/j.celrep.2020.107928)
